{"source": "the supplement of paper PMC8728848", "experiment_in_all_cases": "glycan array binding signal (z-score within array); higher = stronger binding", "details_in_all_cases": "glycan notation: IUPAC condensed, linker removed", "key": {"[1]": {"target": "Neu5Ac(a2-6)GlcNAc(b1-4)GlcNAc(b1-4)GlcNAc", "how_it_was_run": "(§1)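 The binding signal is a Z-score computed within each array. Data were drawn from 3228 arrays in the Consortium for Functional Glycomics database, restricted to those with a known protein sequence. Scores were averaged over arrays of the same protein sequence at different concentrations or buffers, and over linkers, and negative values can be taken as non-binding.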"}, "Neu5Ac(a2-8)Neu5Ac": {"target": "Neu5Ac(a2-8)Neu5Ac", "how_it_was_run": "as §1"}, "[2]": {"target": "Neu5Ac(a2-8)Neu5Ac(a2-3)Gal(b1-3)GalNAc(b1-4)[Neu5Ac(a2-3)]Gal(b1-4)Glc", "how_it_was_run": "as §1"}, "[3]": {"target": "Neu5Ac(a2-8)Neu5Ac(a2-3)Gal(b1-3)GalNAc(b1-4)[Neu5Ac(a2-8)Neu5Ac(a2-3)]Gal(b1-4)Glc", "how_it_was_run": "as §1"}, "[4]": {"target": "Neu5Ac(a2-8)Neu5Ac(a2-3)Gal(b1-4)Glc", "how_it_was_run": "as §1"}, "[5]": {"target": "Neu5Ac(a2-8)Neu5Ac(a2-3)Gal(b1-4)GlcNAc", "how_it_was_run": "as §1"}, "[6]": {"target": "Neu5Ac(a2-8)Neu5Ac(a2-3)[Gal(b1-3)GalNAc(b1-4)]Gal(b1-4)Glc", "how_it_was_run": "as §1"}, "[7]": {"target": "Neu5Ac(a2-8)Neu5Ac(a2-3)[GalNAc(b1-4)]Gal(b1-4)Glc", "how_it_was_run": "as §1"}, "[8]": {"target": "Neu5Ac(a2-8)Neu5Ac(a2-8)Neu5Ac", "how_it_was_run": "as §1"}, "[9]": {"target": "Neu5Ac(a2-8)Neu5Ac(a2-8)Neu5Ac(a2-3)Gal(b1-4)Glc", "how_it_was_run": "as §1"}, "[10]": {"target": "Neu5Ac(a2-8)Neu5Ac(a2-8)Neu5Ac(a2-3)[Gal(b1-3)GalNAc(b1-4)]Gal(b1-4)Glc", "how_it_was_run": "as §1"}, "[11]": {"target": "Neu5Ac(a2-8)Neu5Ac(a2-8)Neu5Ac(a2-3)[GalNAc(b1-4)]Gal(b1-4)Glc", "how_it_was_run": "as §1"}, "[12]": {"target": "Neu5Ac(a2-8)Neu5Ac(a2-8)Neu5Ac(a2-8)Neu5Ac(a2-3)[GalNAc(b1-4)]Gal(b1-4)Glc", "how_it_was_run": "as §1"}, "[13]": {"target": "Neu5Ac(a2-8)Neu5Gc(a2-3)Gal(b1-4)GlcNAc", "how_it_was_run": "as §1"}, "[14]": {"target": "Neu5Ac(b2-6)Gal(b1-4)GlcNAc", "how_it_was_run": "as §1"}, "Neu5Ac(b2-6)GalNAc": {"target": "Neu5Ac(b2-6)GalNAc", "how_it_was_run": "as §1"}, "[15]": {"target": "Neu5Ac9Ac(a2-3)Gal(b1-3)GlcNAc", "how_it_was_run": "as §1"}, "[16]": {"target": "Neu5Ac9Ac(a2-3)Gal(b1-4)GlcNAc", "how_it_was_run": "as §1"}, "[17]": {"target": "Neu5Ac9Ac(a2-6)Gal(b1-4)GlcNAc", "how_it_was_run": "as §1"}, "[18]": {"target": "Neu5Gc(a2-3)Gal(b1-3)GlcNAc", "how_it_was_run": "as §1"}, "[19]": {"target": "Neu5Gc(a2-3)Gal(b1-3)[Fuc(a1-4)]GlcNAc", "how_it_was_run": "as §1"}, "Neu5Gc(a2-3)Gal(b1-4)Glc": {"target": "Neu5Gc(a2-3)Gal(b1-4)Glc", "how_it_was_run": "as §1"}, "[20]": {"target": "Neu5Gc(a2-3)Gal(b1-4)GlcNAc", "how_it_was_run": "as §1"}, "[21]": {"target": "Neu5Gc(a2-3)Gal(b1-4)GlcNAc(b1-3)Gal(b1-4)GlcNAc(b1-2)Man(a1-3)[Neu5Gc(a2-3)Gal(b1-4)GlcNAc(b1-3)Gal(b1-4)GlcNAc(b1-2)Man(a1-6)]Man(b1-4)GlcNAc(b1-4)GlcNAc", "how_it_was_run": "as §1"}, "[22]": {"target": "Neu5Gc(a2-3)Gal(b1-4)[Fuc(a1-3)]GlcNAc", "how_it_was_run": "as §1"}, "[23]": {"target": "Neu5Gc(a2-6)Gal(b1-4)GlcNAc", "how_it_was_run": "as §1"}, "Neu5Gc(a2-6)GalNAc": {"target": "Neu5Gc(a2-6)GalNAc", "how_it_was_run": "as §1"}, "[24]": {"target": "Neu5Gc(a2-8)Neu5Ac(a2-3)Gal(b1-4)GlcNAc", "how_it_was_run": "as §1"}, "[25]": {"target": "Neu5Gc(a2-8)Neu5Gc(a2-3)Gal(b1-4)GlcNAc", "how_it_was_run": "as §1"}, "[26]": {"target": "Neu5Gc(a2-8)Neu5Gc(a2-3)Gal(b1-4)GlcNAc(b1-3)Gal(b1-4)GlcNAc", "how_it_was_run": "as §1"}, "[27]": {"target": "Neu5Gc(a2-8)Neu5Gc(a2-6)Gal(b1-4)GlcNAc", "how_it_was_run": "as §1"}, "[28]": {"target": "Neu5Gc(b2-6)Gal(b1-4)GlcNAc", "how_it_was_run": "as §1"}}, "note": "The list shows a part of the results.", "data": [{"binder": "Mg1lysM (Mycosphaerella graminicola) (protein) QRNPITITPQFDCGATNSQQYVARSGDTLTKIAQEIYHDVVGVCDIARANNLADPNRIDAGTPYTIPINCQTYDRNSCL", "values": [{"measurement": "glycan array binding signal (z-score)", "setting": "[1]", "result": 4.06}, {"measurement": "glycan array binding signal (z-score)", "setting": "Neu5Ac(a2-8)Neu5Ac", "result": -0.063}, {"measurement": "glycan array binding signal (z-score)", "setting": "[2]", "result": -0.041}, {"measurement": "glycan array binding signal (z-score)", "setting": "[3]", "result": -0.048}, {"measurement": "glycan array binding signal (z-score)", "setting": "[4]", "result": -0.058}, {"measurement": "glycan array binding signal (z-score)", "setting": "[5]", "result": -0.068}, {"measurement": "glycan array binding signal (z-score)", "setting": "[6]", "result": -0.07}, {"measurement": "glycan array binding signal (z-score)", "setting": "[7]", "result": -0.067}, {"measurement": "glycan array binding signal (z-score)", "setting": "[8]", "result": -0.056}, {"measurement": "glycan array binding signal (z-score)", "setting": "[9]", "result": -0.069}, {"measurement": "glycan array binding signal (z-score)", "setting": "[10]", "result": -0.06}, {"measurement": "glycan array binding signal (z-score)", "setting": "[11]", "result": -0.072}, {"measurement": "glycan array binding signal (z-score)", "setting": "[12]", "result": -0.052}, {"measurement": "glycan array binding signal (z-score)", "setting": "[13]", "result": -0.052}, {"measurement": "glycan array binding signal (z-score)", "setting": "[14]", "result": -0.081}, {"measurement": "glycan array binding signal (z-score)", "setting": "Neu5Ac(b2-6)GalNAc", "result": -0.076}, {"measurement": "glycan array binding signal (z-score)", "setting": "[15]", "result": -0.091}, {"measurement": "glycan array binding signal (z-score)", "setting": "[16]", "result": -0.075}, {"measurement": "glycan array binding signal (z-score)", "setting": "[17]", "result": -0.064}, {"measurement": "glycan array binding signal (z-score)", "setting": "[18]", "result": -0.04}, {"measurement": "glycan array binding signal (z-score)", "setting": "[19]", "result": -0.055}, {"measurement": "glycan array binding signal (z-score)", "setting": "Neu5Gc(a2-3)Gal(b1-4)Glc", "result": -0.07}, {"measurement": "glycan array binding signal (z-score)", "setting": "[20]", "result": -0.094}, {"measurement": "glycan array binding signal (z-score)", "setting": "[21]", "result": -0.08}, {"measurement": "glycan array binding signal (z-score)", "setting": "[22]", "result": -0.038}, {"measurement": "glycan array binding signal (z-score)", "setting": "[23]", "result": -0.038}, {"measurement": "glycan array binding signal (z-score)", "setting": "Neu5Gc(a2-6)GalNAc", "result": -0.091}, {"measurement": "glycan array binding signal (z-score)", "setting": "[24]", "result": -0.069}, {"measurement": "glycan array binding signal (z-score)", "setting": "[25]", "result": -0.086}, {"measurement": "glycan array binding signal (z-score)", "setting": "[26]", "result": -0.075}, {"measurement": "glycan array binding signal (z-score)", "setting": "[27]", "result": -0.072}, {"measurement": "glycan array binding signal (z-score)", "setting": "[28]", "result": -0.078}]}]}
